Reference: the supplement of paper PMC8728848
The list shows a part of the results.

Assays:
Assay in all cases: glycan array binding signal (z-score within array); higher = stronger binding
Details in all cases: glycan notation: IUPAC condensed, linker removed
[1] = biological target: Neu5Ac(a2-6)Gal(b1-3)GlcNAc(b1-3)[Gal(b1-4)GlcNAc(b1-6)]Gal(b1-4)Glc
Outline: (§1)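 Glycan array binding is given as a within-array Z-score, which can be read as non-binding when negative. The arrays, 3228 of them, came from the Consortium for Functional Glycomics database and were retained only where the protein sequence was available. Z-scores were averaged across arrays of the same protein sequence at different concentrations or buffers and across linkers.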

Neu5Ac(a2-6)Gal(b1-4)Glc = biological target: Neu5Ac(a2-6)Gal(b1-4)Glc
Outline: as §1

[2] = biological target: Neu5Ac(a2-6)Gal(b1-4)GlcNAc
Outline: as §1

[3] = biological target: Neu5Ac(a2-6)Gal(b1-4)GlcNAc(b1-2)Man
Outline: as §1

[4] = biological target: Neu5Ac(a2-6)Gal(b1-4)GlcNAc(b1-2)Man(a1-3)Man(b1-4)GlcNAc(b1-4)GlcNAc
Outline: as §1

[5] = biological target: Neu5Ac(a2-6)Gal(b1-4)GlcNAc(b1-2)Man(a1-3)[Gal(b1-4)GlcNAc(b1-2)Man(a1-6)]Man(b1-4)GlcNAc(b1-4)GlcNAc
Outline: as §1

[6] = biological target: Neu5Ac(a2-6)Gal(b1-4)GlcNAc(b1-2)Man(a1-3)[GlcNAc(b1-2)Man(a1-6)]Man(b1-4)GlcNAc(b1-4)GlcNAc
Outline: as §1

[7] = biological target: Neu5Ac(a2-6)Gal(b1-4)GlcNAc(b1-2)Man(a1-3)[GlcNAc(b1-4)][Neu5Ac(a2-6)Gal(b1-4)GlcNAc(b1-2)Man(a1-6)]Man(b1-4)GlcNAc(b1-4)GlcNAc
Outline: as §1

[8] = biological target: Neu5Ac(a2-6)Gal(b1-4)GlcNAc(b1-2)Man(a1-3)[Man(a1-6)]Man(b1-4)GlcNAc(b1-4)GlcNAc
Outline: as §1

[9] = biological target: Neu5Ac(a2-6)Gal(b1-4)GlcNAc(b1-2)Man(a1-3)[Neu5Ac(a2-3)Gal(b1-4)GlcNAc(b1-2)Man(a1-6)]Man(b1-4)GlcNAc(b1-4)GlcNAc
Outline: as §1

[10] = biological target: Neu5Ac(a2-6)Gal(b1-4)GlcNAc(b1-2)Man(a1-3)[Neu5Ac(a2-6)Gal(b1-4)GlcNAc(b1-2)Man(a1-6)]Man(b1-4)GlcNAc(b1-4)GlcNAc
Outline: as §1

[11] = biological target: Neu5Ac(a2-6)Gal(b1-4)GlcNAc(b1-2)Man(a1-3)[Neu5Ac(a2-6)Gal(b1-4)GlcNAc(b1-2)Man(a1-6)]Man(b1-4)GlcNAc(b1-4)[Fuc(a1-6)]GlcNAc
Outline: as §1

[12] = biological target: Neu5Ac(a2-6)Gal(b1-4)GlcNAc(b1-2)Man(a1-6)Man(b1-4)GlcNAc(b1-4)GlcNAc
Outline: as §1

[13] = biological target: Neu5Ac(a2-6)Gal(b1-4)GlcNAc(b1-2)Man(a1-6)[Gal(b1-4)GlcNAc(b1-2)Man(a1-3)]Man(b1-4)GlcNAc(b1-4)GlcNAc
Outline: as §1

[14] = biological target: Neu5Ac(a2-6)Gal(b1-4)GlcNAc(b1-2)Man(a1-6)[GlcNAc(b1-2)Man(a1-3)]Man(b1-4)GlcNAc(b1-4)GlcNAc
Outline: as §1

[15] = biological target: Neu5Ac(a2-6)Gal(b1-4)GlcNAc(b1-2)Man(a1-6)[Man(a1-3)]Man(b1-4)GlcNAc(b1-4)GlcNAc
Outline: as §1

[16] = biological target: Neu5Ac(a2-6)Gal(b1-4)GlcNAc(b1-2)[Neu5Ac(a2-6)Gal(b1-4)GlcNAc(b1-4)]Man(a1-3)[GlcNAc(b1-4)][Neu5Ac(a2-6)Gal(b1-4)GlcNAc(b1-2)[Neu5Ac(a2-6)Gal(b1-4)GlcNAc(b1-6)]Man(a1-6)]Man(b1-4)GlcNAc(b1-4)GlcNAc
Outline: as §1

[17] = biological target: Neu5Ac(a2-6)Gal(b1-4)GlcNAc(b1-2)[Neu5Ac(a2-6)Gal(b1-4)GlcNAc(b1-4)]Man(a1-3)[GlcNAc(b1-4)][Neu5Ac(a2-6)Gal(b1-4)GlcNAc(b1-4)Man(a1-6)]Man(b1-4)GlcNAc(b1-4)GlcNAc
Outline: as §1

[18] = biological target: Neu5Ac(a2-6)Gal(b1-4)GlcNAc(b1-2)[Neu5Ac(a2-6)Gal(b1-4)GlcNAc(b1-6)]Man(a1-6)[Neu5Ac(a2-6)Gal(b1-4)GlcNAc(b1-2)Man(a1-3)][GlcNAc(b1-4)]Man(b1-4)GlcNAc(b1-4)GlcNAc
Outline: as §1

[19] = biological target: Neu5Ac(a2-6)Gal(b1-4)GlcNAc(b1-3)Gal(b1-3)GlcNAc
Outline: as §1

[20] = biological target: Neu5Ac(a2-6)Gal(b1-4)GlcNAc(b1-3)Gal(b1-4)GlcNAc
Outline: as §1

[21] = biological target: Neu5Ac(a2-6)Gal(b1-4)GlcNAc(b1-3)Gal(b1-4)GlcNAc(b1-2)Man(a1-3)[Neu5Ac(a2-6)Gal(b1-4)GlcNAc(b1-3)Gal(b1-4)GlcNAc(b1-2)Man(a1-6)]GalNAc
Outline: as §1

[22] = biological target: Neu5Ac(a2-6)Gal(b1-4)GlcNAc(b1-3)Gal(b1-4)GlcNAc(b1-3)Gal(b1-4)GlcNAc
Outline: as §1

[23] = biological target: Neu5Ac(a2-6)Gal(b1-4)GlcNAc(b1-3)Gal(b1-4)GlcNAc(b1-3)Gal(b1-4)GlcNAc(b1-2)Man(a1-3)[Neu5Ac(a2-6)Gal(b1-4)GlcNAc(b1-3)Gal(b1-4)GlcNAc(b1-3)Gal(b1-4)GlcNAc(b1-2)Man(a1-6)]GalNAc
Outline: as §1

[24] = biological target: Neu5Ac(a2-6)Gal(b1-4)GlcNAc(b1-3)Gal(b1-4)GlcNAc(b1-3)GalNAc
Outline: as §1

[25] = biological target: Neu5Ac(a2-6)Gal(b1-4)GlcNAc(b1-3)Gal(b1-4)GlcNAc(b1-3)[Neu5Ac(a2-6)Gal(b1-4)GlcNAc(b1-3)Gal(b1-4)GlcNAc(b1-6)]GalNAc
Outline: as §1

[26] = biological target: Neu5Ac(a2-6)Gal(b1-4)GlcNAc(b1-3)Gal(b1-4)GlcNAc(b1-6)[Gal(b1-3)]GalNAc
Outline: as §1

[27] = biological target: Neu5Ac(a2-6)Gal(b1-4)GlcNAc(b1-3)Gal(b1-4)[Fuc(a1-3)]GlcNAc(b1-3)Gal(b1-4)[Fuc(a1-3)]GlcNAc
Outline: as §1

[28] = biological target: Neu5Ac(a2-6)Gal(b1-4)GlcNAc(b1-3)GalNAc
Outline: as §1

[29] = biological target: Neu5Ac(a2-6)Gal(b1-4)GlcNAc(b1-3)[Neu5Ac(a2-6)Gal(b1-4)GlcNAc(b1-6)]GalNAc
Outline: as §1

[30] = biological target: Neu5Ac(a2-6)Gal(b1-4)GlcNAc(b1-6)GalNAc
Outline: as §1

[31] = biological target: Neu5Ac(a2-6)Gal(b1-4)GlcNAc(b1-6)[Gal(b1-3)GlcNAc(b1-3)]Gal(b1-4)Glc
Outline: as §1

[32] = biological target: Neu5Ac(a2-6)Gal(b1-4)GlcNAc(b1-6)[Gal(b1-3)]GalNAc
Outline: as §1

[33] = biological target: Neu5Ac(a2-6)Gal(b1-4)GlcNAc6S
Outline: as §1

Neu5Ac(a2-6)GalNAc = biological target: Neu5Ac(a2-6)GalNAc
Outline: as §1

[34] = biological target: Neu5Ac(a2-6)GalNAc(b1-4)GlcNAc
Outline: as §1

[35] = biological target: Neu5Ac(a2-6)GalNAc(b1-4)GlcNAc6S
Outline: as §1

[36] = biological target: Neu5Ac(a2-6)GlcNAc(b1-4)GlcNAc
Outline: as §1

B1: B1257 (Bifidobacterium sp) (protein)
chain: MKKSIRLVAAIAALAMTAGISACGSSTNGNQAKSDVTAQDVETALTDTSKNVELTVWAYSAKQMEPTVKAFEKKYPHIKINFVNTGAAGDHFTKFQNVVQAQKDIPDVVQMGANKFQQFAVSGALLNFANDSIEKAWSKLYTKTAWAQVHYAGGLYGAPQDATPLANYVRKDILDEHNLQVPESWEDIYNEGIKLHKEDSNKYMGILGSDISFFTNLYRSVGARLWKVNSVDDVELTMNSGKAKEFTEFLQKCLKDGVLEGGTVFTDEFNRSINDGRYATFINENWMGNTYKEQNPSLKGKMVVAAPPSWKGQPYQSSSVGSMMSVSAACPKEKQAAALAFINWLDSDKDAIQSWQDTNNGNFFMAASVYQDDENQRNKKETDGYYANDDVNAVYFDSMDKVNTDWEYLPFMSQVEVVFNDVIVPQMNENGDLVGAMAKAQQELKTYAKDNGFKVTTDAD
- glycan array binding signal (z-score) [1]: -0.127
- glycan array binding signal (z-score) (Neu5Ac(a2-6)Gal(b1-4)Glc): -0.093
- glycan array binding signal (z-score) [2]: -0.192
- glycan array binding signal (z-score) [3]: 0.048
- glycan array binding signal (z-score) [4]: -0.097
- glycan array binding signal (z-score) [5]: -0.031
- glycan array binding signal (z-score) [6]: -0.036
- glycan array binding signal (z-score) [7]: -0.123
- glycan array binding signal (z-score) [8]: -0.015
- glycan array binding signal (z-score) [9]: -0.163
- glycan array binding signal (z-score) [10]: -0.113
- glycan array binding signal (z-score) [11]: 0.024
- glycan array binding signal (z-score) [12]: -0.101
- glycan array binding signal (z-score) [13]: -0.122
- glycan array binding signal (z-score) [14]: -0.118
- glycan array binding signal (z-score) [15]: -0.099
- glycan array binding signal (z-score) [16]: -0.022
- glycan array binding signal (z-score) [17]: 0.094
- glycan array binding signal (z-score) [18]: -0.059
- glycan array binding signal (z-score) [19]: -0.111
- glycan array binding signal (z-score) [20]: -0.051
- glycan array binding signal (z-score) [21]: -0.059
- glycan array binding signal (z-score) [22]: -0.129
- glycan array binding signal (z-score) [23]: 0.344
- glycan array binding signal (z-score) [24]: -0.144
- glycan array binding signal (z-score) [25]: 0.073
- glycan array binding signal (z-score) [26]: -0.049
- glycan array binding signal (z-score) [27]: -0.047
- glycan array binding signal (z-score) [28]: 0.022
- glycan array binding signal (z-score) [29]: -0.02
- glycan array binding signal (z-score) [30]: 0.171
- glycan array binding signal (z-score) [31]: -0.136
- glycan array binding signal (z-score) [32]: -0.046
- glycan array binding signal (z-score) [33]: -0.126
- glycan array binding signal (z-score) (Neu5Ac(a2-6)GalNAc): -0.045
- glycan array binding signal (z-score) [34]: -0.178
- glycan array binding signal (z-score) [35]: 0.053
- glycan array binding signal (z-score) [36]: -0.027
